This is an account of results in PubChem BioAssay AID463173 (ICCB-Longwood Screening Facility, Harvard Medical School, 2010).

About 4,300 (8.3%) of roughly 52,000 compounds were called active. Cut-off read from the data, not from the text of the source: active = survival mostly below about 52% (no sharp cut-off); inactive = mostly above about 56%. The list shows a part of the results.

The test relates to DeltatarO mutant. In words: growth inhibition of S. aureus wild type versus tarO mutant, primary screen, teichoic acid synthesis inhibitors, RN4220, OD600 (AID 463173). The settings on record: OD600, 18 h, hits give low values, screened at 18.75 µg/mL (by protocol).
Turning to `Cc1cn(C)c(CC(=O)NCc2cccc(Cl)c2)c1C(=O)O`, the survival is active: 20%. For `CC(C)(C)c1ccc(CSC2=Nc3ccccc3C3=NC(CC(=O)NCc4cccs4)C(=O)N23)cc1` (stereo not given) the value was inactive: 68%. For `Cc1ccc(CNS(=O)(=O)c2ccc(N3CCCCS3(=O)=O)cc2)cc1` the value was inactive: 83%. For `O=C(NCC(c1ccc2c(c1)OCO2)N1CCOCC1)c1ccccc1` (stereo not given) the value was inactive: 135%; for `Cc1c(O)nc(SCC(=O)Nc2ccc(Cl)cc2Cl)n(-c2ccc(F)cc2)c1=O`, inactive: 79%. `CCN1CCN(c2ncc3c(n2)CCN(Cc2cc(Br)cs2)C3)CC1`: the survival is active: 6%.

On to `CCC(C)NC(=O)c1cc2cc(S(=O)(=O)N3CCCCC3)ccc2n1C` (stereo not given), for which the survival was inactive: 55%.

Regarding `Cn1c(CNc2ccc(Cl)cc2)nnc1SCc1ccc(Cl)cc1`, the survival was inactive: 68%.

`CCC(C)c1ccc(OCC(=O)Nc2cccc3ccc(C)nc23)cc1` (stereo not given): the survival was active: -3%. For `O=C(c1cc2sccc2n1Cc1ccc(F)cc1)N1CCc2ccccc2C1` the value was inactive: 66%.

As for `COc1ccc(NC(=O)c2cccc(N3CCCS3(=O)=O)c2)c(OC)c1`, the survival is inactive: 89%.

`CC(C)Cn1cc(NC(=O)NCc2cccc(Cl)c2)c2ccccc2c1=O`: the survival is inactive: 93%. For `O=C(NCCc1ccccc1)c1ccc2c(c1)N(Cc1ccc(F)cc1)C(=O)CS2` the value was inactive: 74%.

Consider `O=C(NCCC1=CCCCC1)c1ccc2c(c1)sc1nc(-c3ccc(F)cc3)cn12`, for which the survival was inactive: 63%. The value for `Cc1ccc2oc(C(=O)Nc3sc4c(c3C(=O)NCC3CCCO3)CCC4)cc(=O)c2c1` (stereo not given) was inactive: 79%; that for `CCOC(=O)c1c(NC(=O)c2cc(=O)c3cc(C)ccc3o2)sc2c1CCCC2` was inactive: 69%; that for `COc1ccc(Cl)cc1NC(=O)CSC1=Nc2ccccc2C2=NC(CCC(=O)NCc3ccco3)C(=O)N12` (stereo not given) was inactive: 88%.

On to `Cc1ccc(Cn2c(CCNC(=O)c3cccc(C)c3)nc3ccccc32)cc1`, for which the survival is inactive: 60%. For `CC(=O)N/C(N)=N\c1nc(C)c2ccc(C)cc2n1` the value was inactive: 73%; for `N#Cc1c(NC(=O)c2cnn3c(C(F)(F)F)cc(-c4ccco4)nc23)sc2c1CCCC2`, inactive: 87%; for `Cc1cccc(NC(=O)CN2C(=O)C3(SCC(=O)N3c3ccccc3)c3ccccc32)c1` (stereo not given), inactive: 123%. The value for `Cc1ccc(Cn2c(C(=O)O)c(CNCc3ccc(C)o3)c3ccc(C)cc32)cc1` was inactive: 52%. For `Cc1ccc(S(=O)(=O)N2CCN(Cc3ccccc3Cl)CC2)cc1` the value was active: 13%; for `COc1cccc(Cn2c(=O)n(CC3CCC(C(=O)NC(C)C)CC3)c(=O)c3sccc32)c1` (stereo not given), inactive: 101%.

Take `Cc1ccc(C2=NN(CC(=O)NCCc3ccccc3)C(=O)CC2)cc1`: the survival was inactive: 69%.
